Experimental data published in patent publication US20240247043A1 (WUHAN YZY BIOPHARMA, published 2024).

T1: human FGL1-His antigen (ACRO, FG1-H52Hy) (human, UniProt Q08830 23-312)
T1 construct: Bought His-tagged protein; also called hFGL1; hFGL1 antigen
T1 sequence (looked up): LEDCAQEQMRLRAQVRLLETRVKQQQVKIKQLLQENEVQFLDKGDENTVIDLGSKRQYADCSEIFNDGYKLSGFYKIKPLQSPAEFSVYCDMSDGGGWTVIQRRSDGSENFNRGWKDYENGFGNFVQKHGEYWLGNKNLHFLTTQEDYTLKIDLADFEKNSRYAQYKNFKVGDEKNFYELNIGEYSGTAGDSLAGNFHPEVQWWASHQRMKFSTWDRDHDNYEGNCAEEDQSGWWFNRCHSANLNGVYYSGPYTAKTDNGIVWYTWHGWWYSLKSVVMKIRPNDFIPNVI


What was measured:
[1] = biological target: T1, human FGL1-His antigen (ACRO, FG1-H52Hy); assay: Biacore SPR, antigen amine-coupled on CM5 chip, 1:1 fit
[2] = biological target: T1, human FGL1-His antigen (ACRO, FG1-H52Hy); assay: ELISA as in Example 3: construct coated, serially diluted human FGL1 added, OD450

Binder | Kd [1] | binding result [2]
IMP321 (LAG-3 D1-D2-D3-D4-Fc wild type) (Fc fusion, also called IMP321 wild type; IP321-PE) LQPGAEVPVVWAQEGAPAQLPCSPTIPLQDLSLLRRAGVTWQHQPDSGPPAAAPGHPLAPGPHPAAPSSWGPRPRRYTVLSVGPGGLRSGRLPLQPRVQLDERGRQRGDFSLWLRPARRADAGEYRAAVHLRDRALSCRLRLRLGQASMTASPPGSLRASDWVILNCSFSRPDRPASVHWFRNRGQGRVPVRESPHHHLAESFLFLPQVSPMDSGPWGCILTYRDGFNVSIMYNLTVLGLEPPTPLTVYAGAGSRVGLPCRLPAGVGTRSFLTAKWTPPGGGPDLLVTGDNGDFTLRLEDVSQAQAGTYTCHIHLQEQQLNATVTLAIITVTPKSFGSPGSLGKLLCEVTPVSGQERFVWSSLDTPSQRSFSGPWLEAQEAQLLSQPWQCQLYQGERLLGAAVYFTELSSPGDDDDKGSGSG[human IgG1 Fc omitted here] | 8.43 nM | –
LAG-3 D1-D2-D3-D4-Fc mutant A7817 (E201D) (Fc fusion, D2 entry already carries E201D) LQPGAEVPVVWAQEGAPAQLPCSPTIPLQDLSLLRRAGVTWQHQPDSGPPAAAPGHPLAPGPHPAAPSSWGPRPRRYTVLSVGPGGLRSGRLPLQPRVQLDERGRQRGDFSLWLRPARRADAGEYRAAVHLRDRALSCRLRLRLGQASMTASPPGSLRASDWVILNCSFSRPDRPASVHWFRNRGQGRVPVRESPHHHLADSFLFLPQVSPMDSGPWGCILTYRDGFNVSIMYNLTVLGLEPPTPLTVYAGAGSRVGLPCRLPAGVGTRSFLTAKWTPPGGGPDLLVTGDNGDFTLRLEDVSQAQAGTYTCHIHLQEQQLNATVTLAIITVTPKSFGSPGSLGKLLCEVTPVSGQERFVWSSLDTPSQRSFSGPWLEAQEAQLLSQPWQCQLYQGERLLGAAVYFTELSSPGDDDDKGSGSG[human IgG1 Fc omitted here] | – | binds
LAG-3 D1-D2-D3-D4-Fc mutant A7820 (E201G) (Fc fusion, D2 entry already carries E201G) LQPGAEVPVVWAQEGAPAQLPCSPTIPLQDLSLLRRAGVTWQHQPDSGPPAAAPGHPLAPGPHPAAPSSWGPRPRRYTVLSVGPGGLRSGRLPLQPRVQLDERGRQRGDFSLWLRPARRADAGEYRAAVHLRDRALSCRLRLRLGQASMTASPPGSLRASDWVILNCSFSRPDRPASVHWFRNRGQGRVPVRESPHHHLAGSFLFLPQVSPMDSGPWGCILTYRDGFNVSIMYNLTVLGLEPPTPLTVYAGAGSRVGLPCRLPAGVGTRSFLTAKWTPPGGGPDLLVTGDNGDFTLRLEDVSQAQAGTYTCHIHLQEQQLNATVTLAIITVTPKSFGSPGSLGKLLCEVTPVSGQERFVWSSLDTPSQRSFSGPWLEAQEAQLLSQPWQCQLYQGERLLGAAVYFTELSSPGDDDDKGSGSG[human IgG1 Fc omitted here] | – | binds
LAG-3 D1-D2-D3-D4-Fc mutant A7848 (N183A) (Fc fusion, D2 entry already carries N183A) LQPGAEVPVVWAQEGAPAQLPCSPTIPLQDLSLLRRAGVTWQHQPDSGPPAAAPGHPLAPGPHPAAPSSWGPRPRRYTVLSVGPGGLRSGRLPLQPRVQLDERGRQRGDFSLWLRPARRADAGEYRAAVHLRDRALSCRLRLRLGQASMTASPPGSLRASDWVILNCSFSRPDRPASVHWFRARGQGRVPVRESPHHHLAESFLFLPQVSPMDSGPWGCILTYRDGFNVSIMYNLTVLGLEPPTPLTVYAGAGSRVGLPCRLPAGVGTRSFLTAKWTPPGGGPDLLVTGDNGDFTLRLEDVSQAQAGTYTCHIHLQEQQLNATVTLAIITVTPKSFGSPGSLGKLLCEVTPVSGQERFVWSSLDTPSQRSFSGPWLEAQEAQLLSQPWQCQLYQGERLLGAAVYFTELSSPGDDDDKGSGSG[human IgG1 Fc omitted here] | – | binds
LAG-3 D1-D2-D3-D4-Fc mutant A7850 (P195A) (Fc fusion, D2 entry already carries P195A) LQPGAEVPVVWAQEGAPAQLPCSPTIPLQDLSLLRRAGVTWQHQPDSGPPAAAPGHPLAPGPHPAAPSSWGPRPRRYTVLSVGPGGLRSGRLPLQPRVQLDERGRQRGDFSLWLRPARRADAGEYRAAVHLRDRALSCRLRLRLGQASMTASPPGSLRASDWVILNCSFSRPDRPASVHWFRNRGQGRVPVRESAHHHLAESFLFLPQVSPMDSGPWGCILTYRDGFNVSIMYNLTVLGLEPPTPLTVYAGAGSRVGLPCRLPAGVGTRSFLTAKWTPPGGGPDLLVTGDNGDFTLRLEDVSQAQAGTYTCHIHLQEQQLNATVTLAIITVTPKSFGSPGSLGKLLCEVTPVSGQERFVWSSLDTPSQRSFSGPWLEAQEAQLLSQPWQCQLYQGERLLGAAVYFTELSSPGDDDDKGSGSG[human IgG1 Fc omitted here] | – | binds
